Assay results as given in PubChem BioAssay AID624417 (National Center for Advancing Translational Sciences (NCATS), 2012).
Screen size: about 410,000 compounds; about 6,400 (1.6%) were called active. Inconclusive means that the source gave no clear call. Such entries were picked first, then a sample of the others. The call rests on the fitted dose curve; in most records, active means well fitted inhibition curve with a large enough effect; inconclusive means small, poorly fitted or top-dose-only effect; inactive means no such curve, though single readings can be large or run the other way. Where the call is inconclusive, the potency comes from a doubtful curve fit.

target: Glucagon-like peptide 1 receptor (Homo sapiens) (UniProt P43220); assay: qHTS of GLP-1 Receptor Inverse Agonists (Inhibition Mode); conditions: HEK293 GLP-1R CRE-luciferase, luminescence, 24 h, GLP-1R form is constitutively active; series mostly up to 38.3 µM; further: nearly all actives have a fitted effect of over 55% in size
UniProt P43220, sequence (P43220 whole entry, looked up): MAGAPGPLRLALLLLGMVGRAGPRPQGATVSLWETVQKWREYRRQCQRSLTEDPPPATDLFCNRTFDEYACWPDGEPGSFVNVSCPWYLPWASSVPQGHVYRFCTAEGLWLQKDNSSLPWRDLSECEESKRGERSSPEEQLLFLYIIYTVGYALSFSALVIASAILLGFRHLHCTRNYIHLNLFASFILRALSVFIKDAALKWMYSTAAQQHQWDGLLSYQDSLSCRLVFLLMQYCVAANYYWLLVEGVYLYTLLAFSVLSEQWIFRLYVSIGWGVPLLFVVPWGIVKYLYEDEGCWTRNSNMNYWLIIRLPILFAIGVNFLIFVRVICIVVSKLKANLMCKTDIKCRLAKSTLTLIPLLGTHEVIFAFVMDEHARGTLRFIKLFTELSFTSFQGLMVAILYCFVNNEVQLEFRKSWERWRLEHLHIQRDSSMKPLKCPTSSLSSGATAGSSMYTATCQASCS
Summary of the method: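 Readout was luciferase luminescence, measured 12 min after detection reagent at room temperature. Beforehand, GLP-1R reporter HEK293 cells had sat 12 h, then received compounds for 24 hr at 37 deg C.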
Potency means the concentration at half of the fitted maximal effect; tags describe the fitted curve by direction and shape.

Potency, active:
Cc1oc(-c2ccccc2)cc1C(=O)Nc1cccc2ccccc12 10 µM
CCOc1ccc(C(=O)N2CCCC(c3nc(-c4ccc(C)o4)no3)C2)cc1 (stereo unspecified) 11.2 µM

Potency, inactive:
COc1ccc(OC)c(NC(=O)CCn2cccn2)c1
Cc1noc(C)c1CSc1ccc2ccccc2n1
Cc1ccc(Cn2ccnc2SCC(=O)Nc2ccccc2C(F)(F)F)cc1
OC(c1ccccc1)C1CN(Cc2ccccc2)CCC1(O)c1ccccc1 (stereo unspecified)
CC(=O)Nc1ccc(NC(=O)C2Cc3c(-c4ccco4)ccnc3O2)cc1 (stereo unspecified)
C#CCOCCOCCOCCNc1nc(N2CCN(C(=O)CCCCCCCCCCNC(=O)[C@H]([C@@H](C)CC)n3cc(CCCCCN)nn3)CC2)nc(N2CCN(C(=O)CCCCCCCCCCNC(=O)[C@H](CO)n3cc(CCCCCN)nn3)CC2)n1
Cc1ccn2c(NC3CCCCC3)c(C(C)C)nc2c1
O=C(O)CCC(=O)N1CCN(c2cccc(Cl)c2)CC1
CCCN(CCO)CCCc1ccccc1
Cc1nn(C)cc1C=NCCOCc1ccccc1
CCOC(=O)c1nc2cc3n(c(C)c-2c1C)C(C)C(C)=C3C (stereo unspecified)
COC(CNC(=O)CNC(=S)N(Cc1ccccc1)Cc1cccs1)OC
CCS(=O)(=O)c1oc(-c2ccc(F)cc2)nc1S(=O)(=O)c1ccc(Br)cc1
COc1ccc(-c2noc(CCC(=O)N3CCN(c4cccc(F)c4)CC3)n2)cc1
Cc1ccc(NC(=O)Cn2c(-c3nonc3N)nc3ccccc32)cc1C
O=C(Nc1ccc(Oc2cccnc2)cc1)c1ccccc1F
CCc1ccc(S(=O)(=O)c2cn(C)c3cc(F)c(F)cc3c2=O)cc1

Potency, inconclusive:
CCC(C)C(=O)Nc1nnc(CCc2ccccc2)s1 (stereo unspecified) 28.2 µM [inhibitor, single point]
COc1cccc(CNC(=O)c2cccc(S(=O)(=O)N3CCN(Cc4ccccc4)CC3)c2)c1 11.2 µM [inhibitor, partial curve, poor fit]
C=CCOc1ccc(/C=C/C(=O)OCC(=O)NCC2CCCCC2)cc1 4.47 µM [inhibitor, partial curve]
COc1cc(C(CCN2CCOCC2)c2c(OC)cc(OC)c3c(-c4ccccc4)cc(=O)oc23)cc(OC)c1OC (stereo unspecified) 28.2 µM [inhibitor, single point]
CCc1nc2c(OCc3ccc(Cl)cc3)cccn2c1N(C)C(=O)C1CC1 31.6 µM [inhibitor, single point]
CC1(C)C2CCC1(C)C(NC1=NCCC1)C2 (stereo unspecified) 8.91 µM [inhibitor, partial curve, poor fit]
COc1ccc(NC(=O)C(=O)NCC2CCCN2S(=O)(=O)c2cccs2)cc1 (stereo unspecified) 2.24 µM [inhibitor, full curve]
CCCCNC(=O)c1sc(=S)n2c1[nH]c(=O)c1ccccc12 22.4 µM [inhibitor, single point]
COc1cc(Cl)c(C)cc1NC(=O)c1cccc(OC)c1OC 11.2 µM [inhibitor, single point]
CCOc1ccccc1N(C)C(=O)c1cc2c(=O)n(CC)c3ccccc3c2s1 28.2 µM [inhibitor, single point]
Cc1cc(Cl)ccc1OCC(=O)N1CCC(c2nc3ccccc3o2)CC1 14.1 µM [inhibitor, single point]
O=C(/C=C/c1ccccc1)N/C(=C/c1ccccc1)C(=O)Nc1ccccc1O 28.2 µM [inhibitor, single point]
CCN(CC(F)(F)C(F)F)S(=O)(=O)c1ccc(NC(=O)OC)cc1 12.6 µM [inhibitor, single point]
O=S(=O)(c1ccc(F)cc1)N(Cc1nc(-c2ccccc2)no1)C1CCCCC1 11.2 µM [inhibitor, partial curve, poor fit]
O=C(Nc1nnc(-c2ccc3c(c2)CCCC3)o1)c1ccccc1 15.8 µM [inhibitor, single point]
CCOC(=O)C1=C(CSc2nc3ccccc3s2)NC(=O)NC1c1cc(C)ccc1C (stereo unspecified) 3.98 µM [inhibitor, partial curve, poor fit]
Cn1ccnc1COc1ccc(/C=N/O)cc1 28.2 µM [inhibitor, single point]
CCOC(=O)N1CCN(S(=O)(=O)c2ccc(C(=O)N(CCN(CC)CC)c3nc4c(C)cccc4s3)cc2)CC1 22.4 µM [inhibitor, partial curve, poor fit]
Cc1cc(Cl)ccc1C(O)c1ncc(-c2ccc3ccccc3c2)[nH]1 (stereo unspecified) 28.2 µM [inhibitor, single point]
Cc1csc(NC(C)c2nc3cc(Cl)c(Cl)cc3n2CCCO)n1 (stereo unspecified) 10 µM [inhibitor, partial curve, poor fit]
Cc1cccnc1NC(=S)Nc1ccc(Br)cc1Cl 22.4 µM [inhibitor, single point]
Fc1cccc(Cc2noc(CN3CCN(C4CCc5ccccc5C4)CC3)n2)c1 (stereo unspecified) 28.2 µM [inhibitor, single point]
Cc1ccc(C(=O)NCCSCc2ccc(Cl)cc2Cl)cc1[N+](=O)[O-] 11.2 µM [inhibitor, partial curve, poor fit]
CCc1cc(-c2[nH]ncc2-c2ccc3c(c2)OCO3)c(O)cc1O 12.6 µM [inhibitor, partial curve, poor fit]
O=C(Nc1cc(=O)[nH]c(=O)[nH]1)c1cc(Cl)ccc1Cl 4.47 µM [inhibitor, full curve]
CCN(Cc1ccccc1)c1ccc(/C=C(\C#N)c2ccccn2)cc1 28.2 µM [inhibitor, single point]
O=C(CSc1nnnn1-c1ccccc1)N1N=CCC1c1ccccc1 (stereo unspecified) 31.6 µM [inhibitor, single point]
Cc1oc(-c2ccccc2Cl)nc1CS(=O)CC(=O)NCc1ccccc1Cl (stereo unspecified) 14.1 µM [inhibitor, partial curve, poor fit]
COc1ccccc1NS(=O)(=O)c1cccc(NC(=O)c2[nH]c(C)c(C(C)=O)c2C)c1 22.4 µM [inhibitor, partial curve, poor fit]
O=C1CN(C(=O)COc2ccc(Cl)cc2)C(c2ccc(F)cc2)c2cc(Br)ccc2N1 (stereo unspecified) 28.2 µM [inhibitor, single point]
CC(=O)C1=C(c2ccc(Cl)c(Cl)c2)N(C(C)=O)n2cnnc2S1 10 µM [inhibitor, partial curve, poor fit]
Cc1ccc(NC(=O)N2CCN(Cc3nc4ccc(C)cc4o3)CC2)c(Cl)c1 28.2 µM [inhibitor, single point]
COc1cc(N2CCCC2)c(OC)cc1/C=C(/C#N)c1cccc(Br)c1 7.94 µM [inhibitor, partial curve, poor fit]
Cc1ccc(C(=O)N2N=C(c3ccc(Br)cc3)CC2c2ccccc2O)cc1 (stereo unspecified) 20 µM [inhibitor, single point]
Cc1ccc(N(CC(=O)NCc2ccco2)C(=O)CNS(=O)(=O)c2ccc(F)cc2)c(C)c1 3.98 µM [inhibitor, partial curve, poor fit]
CCOC(=O)c1ccc(NC(=O)CC2C(=O)N(c3ccc(C)cc3)C(=O)N2C2CCCC2)cc1 (stereo unspecified) 28.2 µM [inhibitor, single point]
CC(C)N(CCNC(=O)C1CCCN(c2ncnc3c2nc2n3CCCCC2)C1)Cc1ccccc1 (stereo unspecified) 20 µM [inhibitor, single point]
COc1ccc2ccccc2c1C1NC(=O)c2ccccc2N1 (stereo unspecified) 3.98 µM [inhibitor, partial curve, poor fit]
O=C(Nc1ccc(Cl)cc1)Nc1ccc(Oc2cccnc2)nc1 14.1 µM [inhibitor, partial curve, poor fit]
Cc1ccc(C(=O)N2CCN(c3ccccc3Cl)CC2)cc1[N+](=O)[O-] 28.2 µM [inhibitor, single point]
COC(=O)c1sccc1N/N=C/c1cccc(OC)c1O 6.31 µM [inhibitor, partial curve]
O=C(C1CCN(S(=O)(=O)c2cccc3nsnc23)CC1)N1CCN(c2ccccc2F)CC1 11.2 µM [inhibitor, single point]
COc1ccc(OC)c(N2C(=O)CC(Cc3ccc(Cl)cc3)C2=O)c1 (stereo unspecified) 31.6 µM [inhibitor, single point]
c1csc(-c2ccc(N3CCOCC3)nn2)c1 8.91 µM [inhibitor, partial curve]
O=C(Nc1nc(COc2ccccc2)cs1)C12CC3CC(CC(C3)C1)C2 11.2 µM [inhibitor, partial curve, poor fit]
CC(C)C(=O)Nc1ccc(C(=O)Nc2nnc(C(C)(C)C)s2)cc1 8.91 µM [inhibitor, partial curve, poor fit]
CCCCOc1ccc(C(=O)NCCc2ccccc2)cc1 10 µM [inhibitor, partial curve]
